# Some of the results follow.
# B1: Gal 1 (Mus musculus), P16045 (protein)
# chain: MACGLVASNLNLKPGECLKVRGEVASDAKSFVLNLGKDSNNLCLHFNPRFNAHGDANTIVCNTKEDGTWGTEHREPAFPFQPGSITEVCITFDQADLTIKLPDGHEFKFPNRLNMEAINYMAADGDFKIKCVAFE
# Assays:
# Test in all cases: glycan array binding signal (z-score within array); higher = stronger binding
# Conditions in all cases: glycan notation: IUPAC condensed, linker removed
# [1] = biological target: Neu5Ac(a2-3)Gal(b1-4)GlcNAc(b1-2)Man(a1-3)[GlcNAc(b1-2)Man(b1-4)GlcNAc(b1-2)Man(a1-6)]Man(b1-4)GlcNAc(b1-4)GlcNAc
# Outline: (§1)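 The binding signal is a Z-score computed within each array and averaged over linkers. Arrays of the same protein sequence at different concentrations or buffers were also averaged together. Data originate from 3228 arrays in the Consortium for Functional Glycomics database, kept only where the protein sequence was available.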
# [2] = biological target: Neu5Ac(a2-3)Gal(b1-4)GlcNAc(b1-2)Man(a1-3)[GlcNAc(b1-4)][Neu5Ac(a2-3)Gal(b1-4)GlcNAc(b1-2)Man(a1-6)]Man(b1-4)GlcNAc(b1-4)GlcNAc
# Outline: as §1
# [3] = biological target: Neu5Ac(a2-3)Gal(b1-4)GlcNAc(b1-2)Man(a1-3)[Neu5Ac(a2-3)Gal(b1-4)GlcNAc(b1-2)Man(a1-6)]Man(b1-4)GlcNAc(b1-4)GlcNAc
# Outline: as §1
# [4] = biological target: Neu5Ac(a2-3)Gal(b1-4)GlcNAc(b1-2)Man(a1-3)[Neu5Ac(a2-3)Gal(b1-4)GlcNAc(b1-2)Man(a1-6)]Man(b1-4)GlcNAc(b1-4)[Fuc(a1-6)]GlcNAc
# Outline: as §1
# [5] = biological target: Neu5Ac(a2-3)Gal(b1-4)GlcNAc(b1-2)Man(a1-3)[Neu5Ac(a2-6)Gal(b1-4)GlcNAc(b1-2)Man(a1-6)]Man(b1-4)GlcNAc(b1-4)GlcNAc
# Outline: as §1
# [6] = biological target: Neu5Ac(a2-3)Gal(b1-4)GlcNAc(b1-2)[Neu5Ac(a2-3)Gal(b1-4)GlcNAc(b1-4)]Man(a1-3)[GlcNAc(b1-4)][Neu5Ac(a2-3)Gal(b1-4)GlcNAc(b1-2)[Neu5Ac(a2-3)Gal(b1-4)GlcNAc(b1-6)]Man(a1-6)]Man(b1-4)GlcNAc(b1-4)GlcNAc
# Outline: as §1
# [7] = biological target: Neu5Ac(a2-3)Gal(b1-4)GlcNAc(b1-2)[Neu5Ac(a2-3)Gal(b1-4)GlcNAc(b1-4)]Man(a1-3)[GlcNAc(b1-4)][Neu5Ac(a2-3)Gal(b1-4)GlcNAc(b1-4)Man(a1-6)]Man(b1-4)GlcNAc(b1-4)GlcNAc
# Outline: as §1
# [8] = biological target: Neu5Ac(a2-3)Gal(b1-4)GlcNAc(b1-2)[Neu5Ac(a2-3)Gal(b1-4)GlcNAc(b1-6)]Man(a1-6)[Neu5Ac(a2-3)Gal(b1-4)GlcNAc(b1-2)Man(a1-3)]Man(b1-4)GlcNAc(b1-4)GlcNAc
# Outline: as §1
# [9] = biological target: Neu5Ac(a2-3)Gal(b1-4)GlcNAc(b1-2)[Neu5Ac(a2-3)Gal(b1-4)GlcNAc(b1-6)]Man(a1-6)[Neu5Ac(a2-3)Gal(b1-4)GlcNAc(b1-2)Man(a1-3)][GlcNAc(b1-4)]Man(b1-4)GlcNAc(b1-4)GlcNAc
# Outline: as §1
# [10] = biological target: Neu5Ac(a2-3)Gal(b1-4)GlcNAc(b1-3)Gal
# Outline: as §1
# [11] = biological target: Neu5Ac(a2-3)Gal(b1-4)GlcNAc(b1-3)Gal(b1-3)GlcNAc
# Outline: as §1
# [12] = biological target: Neu5Ac(a2-3)Gal(b1-4)GlcNAc(b1-3)Gal(b1-4)GlcNAc
# Outline: as §1
# [13] = biological target: Neu5Ac(a2-3)Gal(b1-4)GlcNAc(b1-3)Gal(b1-4)GlcNAc(b1-2)Man(a1-3)[Neu5Ac(a2-3)Gal(b1-4)GlcNAc(b1-3)Gal(b1-4)GlcNAc(b1-2)Man(a1-6)]Man(b1-4)GlcNAc(b1-4)GlcNAc
# Outline: as §1
# [14] = biological target: Neu5Ac(a2-3)Gal(b1-4)GlcNAc(b1-3)Gal(b1-4)GlcNAc(b1-3)Gal(b1-4)GlcNAc
# Outline: as §1
# [15] = biological target: Neu5Ac(a2-3)Gal(b1-4)GlcNAc(b1-3)Gal(b1-4)GlcNAc(b1-3)Gal(b1-4)GlcNAc(b1-2)Man(a1-3)[Neu5Ac(a2-3)Gal(b1-4)GlcNAc(b1-3)Gal(b1-4)GlcNAc(b1-3)Gal(b1-4)GlcNAc(b1-2)Man(a1-6)]GalNAc
# Outline: as §1
# [16] = biological target: Neu5Ac(a2-3)Gal(b1-4)GlcNAc(b1-3)Gal(b1-4)GlcNAc(b1-3)GalNAc
# Outline: as §1
# [17] = biological target: Neu5Ac(a2-3)Gal(b1-4)GlcNAc(b1-3)Gal(b1-4)GlcNAc(b1-3)[Neu5Ac(a2-3)Gal(b1-4)GlcNAc(b1-3)Gal(b1-4)GlcNAc(b1-6)]GalNAc
# Outline: as §1
# [18] = biological target: Neu5Ac(a2-3)Gal(b1-4)GlcNAc(b1-3)Gal(b1-4)GlcNAc(b1-6)[Gal(b1-3)]GalNAc
# Outline: as §1
# [19] = biological target: Neu5Ac(a2-3)Gal(b1-4)GlcNAc(b1-3)Gal(b1-4)[Fuc(a1-3)]GlcNAc
# Outline: as §1
# [20] = biological target: Neu5Ac(a2-3)Gal(b1-4)GlcNAc(b1-3)GalNAc
# Outline: as §1
# [21] = biological target: Neu5Ac(a2-3)Gal(b1-4)GlcNAc(b1-3)[Neu5Ac(a2-3)Gal(b1-4)GlcNAc(b1-6)]GalNAc
# Outline: as §1
# [22] = biological target: Neu5Ac(a2-3)Gal(b1-4)GlcNAc(b1-6)GalNAc
# Outline: as §1
# [23] = biological target: Neu5Ac(a2-3)Gal(b1-4)GlcNAc(b1-6)[Gal(b1-3)]GalNAc
# Outline: as §1
# [24] = biological target: Neu5Ac(a2-3)Gal(b1-4)GlcNAc(b1-6)[Neu5Ac(a2-3)Gal(b1-3)]GalNAc
# Outline: as §1
# [25] = biological target: Neu5Ac(a2-3)Gal(b1-4)GlcNAc6S
# Outline: as §1
# [26] = biological target: Neu5Ac(a2-3)Gal(b1-4)[Fuc(a1-3)]GlcNAc
# Outline: as §1
# [27] = biological target: Neu5Ac(a2-3)Gal(b1-4)[Fuc(a1-3)]GlcNAc(b1-2)Man
# Outline: as §1
# [28] = biological target: Neu5Ac(a2-3)Gal(b1-4)[Fuc(a1-3)]GlcNAc(b1-3)Gal
# Outline: as §1
# [29] = biological target: Neu5Ac(a2-3)Gal(b1-4)[Fuc(a1-3)]GlcNAc(b1-3)Gal(b1-4)GlcNAc
# Outline: as §1
# [30] = biological target: Neu5Ac(a2-3)Gal(b1-4)[Fuc(a1-3)]GlcNAc(b1-3)Gal(b1-4)[Fuc(a1-3)]GlcNAc(b1-3)Gal(b1-4)[Fuc(a1-3)]GlcNAc
# Outline: as §1
# [31] = biological target: Neu5Ac(a2-3)Gal(b1-4)[Fuc(a1-3)]GlcNAc(b1-3)GalNAc
# Outline: as §1
# [32] = biological target: Neu5Ac(a2-3)Gal(b1-4)[Fuc(a1-3)]GlcNAc(b1-6)[Gal(b1-3)]GalNAc
# Outline: as §1
# [33] = biological target: Neu5Ac(a2-3)Gal(b1-4)[Fuc(a1-3)]GlcNAc(b1-6)[Neu5Ac(a2-3)Gal(b1-3)]GalNAc
# Outline: as §1
# [34] = biological target: Neu5Ac(a2-3)Gal(b1-4)[Fuc(a1-3)]GlcNAc6S
# Outline: as §1
# [35] = biological target: Neu5Ac(a2-3)Gal6S(b1-4)GlcNAc
# Outline: as §1
# [36] = biological target: Neu5Ac(a2-3)Gal6S(b1-4)[Fuc(a1-3)]GlcNAc
# Outline: as §1
# Neu5Ac(a2-3)GalNAc = biological target: Neu5Ac(a2-3)GalNAc
# Outline: as §1
# [37] = biological target: Neu5Ac(a2-3)GalNAc(b1-4)GlcNAc
# Outline: as §1
# [38] = biological target: Neu5Ac(a2-3)[GalNAc(b1-4)]Gal(b1-4)Glc
# Outline: as §1
# [39] = biological target: Neu5Ac(a2-3)[GalNAc(b1-4)]Gal(b1-4)GlcNAc
# Outline: as §1
# [40] = biological target: Neu5Ac(a2-3)[GalNAc(b1-4)]Gal(b1-4)GlcNAc(b1-3)GalNAc
# Outline: as §1
# [41] = biological target: Neu5Ac(a2-3)[Neu5Ac(a2-6)]GalNAc
# Outline: as §1
# Neu5Ac(a2-6)Gal = biological target: Neu5Ac(a2-6)Gal
# Outline: as §1
# [42] = biological target: Neu5Ac(a2-6)Gal(b1-3)GlcNAc(b1-3)[Gal(b1-4)GlcNAc(b1-6)]Gal(b1-4)Glc
# Outline: as §1
# Neu5Ac(a2-6)Gal(b1-4)Glc = biological target: Neu5Ac(a2-6)Gal(b1-4)Glc
# Outline: as §1
binder,measurement,setting,value
B1,glycan array binding signal (z-score),[1],-0.069
same,glycan array binding signal (z-score),[2],0.02
same,glycan array binding signal (z-score),[3],1.51
same,glycan array binding signal (z-score),[4],0.859
same,glycan array binding signal (z-score),[5],-0.138
same,glycan array binding signal (z-score),[6],0.94
same,glycan array binding signal (z-score),[7],0.616
same,glycan array binding signal (z-score),[8],0.153
same,glycan array binding signal (z-score),[9],-0.097
same,glycan array binding signal (z-score),[10],-0.337
same,glycan array binding signal (z-score),[11],-0.268
same,glycan array binding signal (z-score),[12],-0.17
same,glycan array binding signal (z-score),[13],1.31
same,glycan array binding signal (z-score),[14],0.012
same,glycan array binding signal (z-score),[15],2.5
same,glycan array binding signal (z-score),[16],-0.199
same,glycan array binding signal (z-score),[17],0.372
same,glycan array binding signal (z-score),[18],0.131
same,glycan array binding signal (z-score),[19],-0.268
same,glycan array binding signal (z-score),[20],-0.188
same,glycan array binding signal (z-score),[21],-0.219
same,glycan array binding signal (z-score),[22],-0.118
same,glycan array binding signal (z-score),[23],-0.328
same,glycan array binding signal (z-score),[24],-0.052
same,glycan array binding signal (z-score),[25],-0.198
same,glycan array binding signal (z-score),[26],-0.287
same,glycan array binding signal (z-score),[27],-0.196
same,glycan array binding signal (z-score),[28],-0.286
same,glycan array binding signal (z-score),[29],-0.283
same,glycan array binding signal (z-score),[30],-0.083
same,glycan array binding signal (z-score),[31],-0.23
same,glycan array binding signal (z-score),[32],-0.312
same,glycan array binding signal (z-score),[33],-0.171
same,glycan array binding signal (z-score),[34],-0.295
same,glycan array binding signal (z-score),[35],-0.411
same,glycan array binding signal (z-score),[36],-0.29
same,glycan array binding signal (z-score),Neu5Ac(a2-3)GalNAc,-0.44
same,glycan array binding signal (z-score),[37],-0.439
same,glycan array binding signal (z-score),[38],-0.315
same,glycan array binding signal (z-score),[39],-0.266
same,glycan array binding signal (z-score),[40],0.377
same,glycan array binding signal (z-score),[41],-0.3
same,glycan array binding signal (z-score),Neu5Ac(a2-6)Gal,-0.435
same,glycan array binding signal (z-score),[42],-0.279
same,glycan array binding signal (z-score),Neu5Ac(a2-6)Gal(b1-4)Glc,-0.31

# — the supplement of paper PMC8728848
